Reference: publication PMC4336329 (PLoS ONE, 2015)
Among all 310,000 compounds or so, about 14,000 (4.5%) showed an effect of 50% or more. The effect is printed as a negative number. The list shows a part of the results.

target: human ether-à-go-go-related gene (hERG) potassium channel (human, UniProt Q12809); assay: primary screen, population patch clamp on CHO cells stably expressing hERG
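Also: peak tail current of the secondary pulse compared with the same well before compound.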

human ether-à-go-go-related gene (hERG) potassium channel, sequence (Q12809 whole entry, looked up): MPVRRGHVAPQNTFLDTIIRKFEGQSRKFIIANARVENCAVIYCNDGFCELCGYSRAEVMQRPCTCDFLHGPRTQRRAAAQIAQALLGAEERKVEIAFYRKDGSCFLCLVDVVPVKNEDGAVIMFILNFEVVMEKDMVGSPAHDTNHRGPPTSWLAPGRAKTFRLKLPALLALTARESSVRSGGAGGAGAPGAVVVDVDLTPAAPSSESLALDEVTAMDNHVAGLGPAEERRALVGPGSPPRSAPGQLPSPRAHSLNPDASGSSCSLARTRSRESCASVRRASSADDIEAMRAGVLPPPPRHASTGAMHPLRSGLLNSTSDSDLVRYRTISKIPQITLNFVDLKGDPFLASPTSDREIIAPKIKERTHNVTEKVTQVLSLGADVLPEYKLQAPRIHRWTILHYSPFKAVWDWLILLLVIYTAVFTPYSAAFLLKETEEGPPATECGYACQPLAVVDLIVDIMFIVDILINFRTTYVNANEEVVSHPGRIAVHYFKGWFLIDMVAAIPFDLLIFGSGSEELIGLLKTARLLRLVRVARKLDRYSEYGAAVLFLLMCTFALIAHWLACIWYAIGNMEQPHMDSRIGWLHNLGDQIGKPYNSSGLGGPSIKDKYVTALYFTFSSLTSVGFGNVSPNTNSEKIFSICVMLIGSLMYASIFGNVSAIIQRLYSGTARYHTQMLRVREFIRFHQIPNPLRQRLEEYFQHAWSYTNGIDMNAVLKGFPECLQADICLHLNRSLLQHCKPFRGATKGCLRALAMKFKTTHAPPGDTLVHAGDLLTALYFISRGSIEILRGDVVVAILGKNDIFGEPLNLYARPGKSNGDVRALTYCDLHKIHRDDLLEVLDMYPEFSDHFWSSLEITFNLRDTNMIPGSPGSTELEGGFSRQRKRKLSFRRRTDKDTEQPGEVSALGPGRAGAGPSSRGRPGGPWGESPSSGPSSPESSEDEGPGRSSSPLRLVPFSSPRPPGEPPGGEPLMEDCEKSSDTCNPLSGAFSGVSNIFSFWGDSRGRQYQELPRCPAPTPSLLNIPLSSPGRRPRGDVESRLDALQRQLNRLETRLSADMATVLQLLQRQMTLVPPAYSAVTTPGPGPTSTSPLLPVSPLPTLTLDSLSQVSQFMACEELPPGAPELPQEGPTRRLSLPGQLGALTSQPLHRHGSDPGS

Which “hERG current change (%, negative = inhibition) at 10uM” value does the source give for CC(C)CCNC(=O)CO/N=C/c1ccccc1OC(F)F here?
The value was -0.658%.

O=[N+]([O-])c1cccc(-c2c(-c3ccccc3)ncc3ccc(F)cc23)c1 was tested. Which “hERG current change (%, negative = inhibition) at 10uM” value did it give?
The value was 1.49%.

With C=CCn1c(=O)c2ccc(C(=O)NCc3ccccc3)cc2n(Cc2cccc(Cl)c2)c1=O as the compound, how does the “hERG current change (%, negative = inhibition) at 10uM” value read?
Its value is 14%.

CC1(C)CC(=O)c2sc(NS(=O)(=O)c3ccc([N+](=O)[O-])cc3)nc2C1 was tested. Which “hERG current change (%, negative = inhibition) at 10uM” value did it give?
The value was 14.7%.

Which “hERG current change (%, negative = inhibition) at 10uM” value does the source give for COc1ccc(C(=O)c2c(C)oc3ccc(O)cc23)c(OC)c1 here?
Its value is 18.7%.

With CC(C)(C)C(=O)N1CCN(CCN2C(=O)c3cccc4cccc(c34)C2=O)CC1 as the compound, how does the “hERG current change (%, negative = inhibition) at 10uM” value read?
Its value is 3.09%.

For CC(C)C(=O)Nc1ccc(C(=O)NC2CCSC2=O)cc1 (centres unmarked), which “hERG current change (%, negative = inhibition) at 10uM” value is on record?
The value was 7.51%.

How did the “hERG current change (%, negative = inhibition) at 10uM” value turn out when CC(C)c1ccc(C(C(=O)NC2CCCCC2)N(C(=O)c2csnn2)C2CC2)cc1 (centres unmarked) was run?
Its value is 0.0433%.

With O=C(Nc1cccnc1)/C(N=Nc1c(Cl)cccc1Cl)=C(\O)c1ccccc1 as the compound, how does the “hERG current change (%, negative = inhibition) at 10uM” value read?
The value was 18.8%.

COc1ccccc1-c1n[nH]c(=S)n1-c1ccccc1 was tested. Which “hERG current change (%, negative = inhibition) at 10uM” value did it give?
Its value is 13.2%.

Which “hERG current change (%, negative = inhibition) at 10uM” value does the source give for CCOc1cc(/C=N/NC(=O)N/N=C/c2ccc(O)c(OCC)c2)ccc1O here?
The value was -10.1%.

Which “hERG current change (%, negative = inhibition) at 10uM” value does the source give for O=C(CC1C(=O)NCCN1C/C=C/c1ccccc1)NCCc1ccncc1 (centres unmarked) here?
The value was -18.1%.

For COc1cc(S(=O)(=O)Nc2ccc3cn[nH]c3c2)ccc1Cl, which “hERG current change (%, negative = inhibition) at 10uM” value is on record?
Its value is -7.9%.

Which “hERG current change (%, negative = inhibition) at 10uM” value does the source give for COc1ccc(CC(=O)N/N=C/c2cc([N+](=O)[O-])cc(Br)c2O)cc1 here?
The value was 6.88%.

For O=P(OC1CCCCC1)(OC1CCCCC1)C(O)c1c(Cl)cccc1Cl (centres unmarked), which “hERG current change (%, negative = inhibition) at 10uM” value is on record?
The value was -1.25%.

For CC(C)c1ccc(NC(=O)COC(=O)CSc2nnc(N)s2)cc1, which “hERG current change (%, negative = inhibition) at 10uM” value is on record?
The value was 13%.

Which “hERG current change (%, negative = inhibition) at 10uM” value does the source give for COc1ccc(CCNC(=O)CN2C(=O)NC(C)(c3ccc([N+](=O)[O-])cc3)C2=O)cc1 (centres unmarked) here?
The value was -26.5%.

NNc1nc2sc3c(c2c(=O)n1C1CCCCC1)CCN(Cc1ccccc1)C3 was tested. Which “hERG current change (%, negative = inhibition) at 10uM” value did it give?
Its value is -3.78%.

Cc1n[nH]c(C)c1C(=O)CC1(O)C(=O)N(Cc2ccccc2)c2ccc(Br)cc21 (centres unmarked) was tested. Which “hERG current change (%, negative = inhibition) at 10uM” value did it give?
Its value is -1.66%.

COc1cccc(-n2cc(C(=O)NCCCOC(C)C)c3ccccc3c2=O)c1 was tested. Which “hERG current change (%, negative = inhibition) at 10uM” value did it give?
Its value is -6.95%.

For O=C(O)CSc1ccccc1C(=O)O, which “hERG current change (%, negative = inhibition) at 10uM” value is on record?
The value was 0.431%.

How did the “hERG current change (%, negative = inhibition) at 10uM” value turn out when Cc1nn(-c2ccccc2)c(C)c1/C=C/C(=O)OC(C)C(N)=O (centres unmarked) was run?
Its value is 6%.

COc1ccc(CCN(C)CCC(=O)Nc2ccc(C)cc2)cc1OC.Cl was tested. Which “hERG current change (%, negative = inhibition) at 10uM” value did it give?
The value was -64.3%.

With COc1ccc(S(=O)(=O)N2CCCC(C(=O)NCCC(C)C)C2)cc1 (centres unmarked) as the compound, how does the “hERG current change (%, negative = inhibition) at 10uM” value read?
Its value is 9.87%.

How did the “hERG current change (%, negative = inhibition) at 10uM” value turn out when CC(=O)c1cccc(NC(=O)C(C)OC(=O)c2cc(=O)[nH]c3ccccc23)c1 (centres unmarked) was run?
Its value is -0.987%.

Cc1c(-c2n[nH]c(=S)n2-c2ccc(C(F)(F)F)cc2)nnn1-c1ccccc1 was tested. Which “hERG current change (%, negative = inhibition) at 10uM” value did it give?
Its value is 20%.

With CCCN(CC(=O)Nc1ccccc1C)C(=O)CCN1C(=O)c2cccc([N+](=O)[O-])c2C1=O as the compound, how does the “hERG current change (%, negative = inhibition) at 10uM” value read?
The value was -18.6%.

Cc1c(C(=O)N/N=C/c2cccs2)nnn1-c1nonc1N was tested. Which “hERG current change (%, negative = inhibition) at 10uM” value did it give?
The value was -18.8%.

COc1cccc(Oc2ccc(N)cn2)c1 was tested. Which “hERG current change (%, negative = inhibition) at 10uM” value did it give?
Its value is 2.71%.

Which “hERG current change (%, negative = inhibition) at 10uM” value does the source give for Cc1cccnc1CCNC(=O)CCc1nnc(CCc2ccccc2)o1 here?
Its value is -2.46%.

How did the “hERG current change (%, negative = inhibition) at 10uM” value turn out when COC(=O)C(CC(C)C)NC(=O)CSc1nc(-c2ccccc2)c(C#N)c(=O)[nH]1 (centres unmarked) was run?
The value was -14.4%.

For Cc1cccc(N(Cc2ccccc2)C(=O)CN2C(=O)NC3(CCCCC3C)C2=O)c1 (centres unmarked), which “hERG current change (%, negative = inhibition) at 10uM” value is on record?
The value was -36.8%.

For Cc1c(Cl)cccc1NC(=O)CN1CCN(CCN=CC2=C(O)CC(c3ccccc3)CC2=O)CC1 (centres unmarked), which “hERG current change (%, negative = inhibition) at 10uM” value is on record?
Its value is -19.9%.

How did the “hERG current change (%, negative = inhibition) at 10uM” value turn out when CC1(C)c2cc(Cl)ccc2-n2c1cc(O)c(-c1ccccc1)c2=O was run?
The value was 9.35%.

How did the “hERG current change (%, negative = inhibition) at 10uM” value turn out when CCOC(=O)CSc1c(-c2ccc(Cl)cc2)[nH]c2ccccc12 was run?
Its value is -4.47%.

With COc1ccc(/C=C(\NC(=O)c2ccc(OC)cc2)C(=O)Nc2ccccc2C(=O)O)cc1 as the compound, how does the “hERG current change (%, negative = inhibition) at 10uM” value read?
The value was -17.9%.

With CCC(CC)C(=O)NCCc1ccc(OC)cc1 as the compound, how does the “hERG current change (%, negative = inhibition) at 10uM” value read?
The value was 17.8%.

COCCN(C(=O)C1CCCC1)c1c(N)n(Cc2ccccc2)c(=O)[nH]c1=O was tested. Which “hERG current change (%, negative = inhibition) at 10uM” value did it give?
The value was 29.4%.

Which “hERG current change (%, negative = inhibition) at 10uM” value does the source give for O=C(Nc1ncc([N+](=O)[O-])s1)C1CC(=O)N(c2ccc(F)cc2)C1 (centres unmarked) here?
Its value is 5.96%.

With CCCCn1c(N)c(N(CCC(C)C)C(=O)c2c(C)noc2C)c(=O)[nH]c1=O as the compound, how does the “hERG current change (%, negative = inhibition) at 10uM” value read?
Its value is 8.73%.

For CCOC(=O)C(C)c1c(C)[nH]c(=S)[nH]c1=O (centres unmarked), which “hERG current change (%, negative = inhibition) at 10uM” value is on record?
Its value is 9.04%.

How did the “hERG current change (%, negative = inhibition) at 10uM” value turn out when COc1ccc(C)cc1-n1[nH]nnc1=S was run?
Its value is 16.3%.

Which “hERG current change (%, negative = inhibition) at 10uM” value does the source give for Cc1cccc(-n2nc3c(c2NC(=O)C2CC2)CS(=O)(=O)C3)c1C here?
Its value is -15.4%.

How did the “hERG current change (%, negative = inhibition) at 10uM” value turn out when O=C(CCC(=O)NC1CCCCC1)N/N=C/c1ccncc1 was run?
Its value is 38.9%.

With O=C(CSc1nnnn1C1CCCCC1)Nc1ccccc1N1CCOCC1 as the compound, how does the “hERG current change (%, negative = inhibition) at 10uM” value read?
The value was -6.54%.

CC(=O)NC1=NC(=O)CS1 was tested. Which “hERG current change (%, negative = inhibition) at 10uM” value did it give?
Its value is 0.147%.

COCCn1c(C)cc(C(=O)CSc2nc(C)nc3sc4c(c23)CCC4)c1C was tested. Which “hERG current change (%, negative = inhibition) at 10uM” value did it give?
Its value is 11.6%.

COc1cc(/C=N/n2c(=S)[nH]nc(C)c2=O)cc([N+](=O)[O-])c1O was tested. Which “hERG current change (%, negative = inhibition) at 10uM” value did it give?
The value was 20.4%.

O=C(CC1C(=O)NCCN1Cc1ccc(Cl)c(F)c1)NCCc1cccnc1 (centres unmarked) was tested. Which “hERG current change (%, negative = inhibition) at 10uM” value did it give?
Its value is -12.7%.

Which “hERG current change (%, negative = inhibition) at 10uM” value does the source give for Cc1occc(=O)c1OCc1ccc(Cl)cc1Cl here?
Its value is -9.81%.

How did the “hERG current change (%, negative = inhibition) at 10uM” value turn out when Cc1nc2ccccc2c(=O)n1-c1ccc(Cl)c(Cl)c1 was run?
The value was -8.26%.

With Cc1ccc(N2CCN(S(=O)(=O)c3ccc4c(c3)oc(=O)n4C)CC2C)cc1 (centres unmarked) as the compound, how does the “hERG current change (%, negative = inhibition) at 10uM” value read?
Its value is 9.52%.

CC(NC(=O)COC(=O)COc1ccc(C(=O)c2ccccc2)cc1)c1ccccc1 (centres unmarked) was tested. Which “hERG current change (%, negative = inhibition) at 10uM” value did it give?
Its value is -1.27%.

Which “hERG current change (%, negative = inhibition) at 10uM” value does the source give for O=C(CCc1nnc(CCCc2ccccc2)o1)NC(C1CC1)C1CC1 here?
The value was 2.96%.

With CCCN(CC(=O)Nc1ccccc1OC)C(=O)CCNC(=O)c1ccccc1OC as the compound, how does the “hERG current change (%, negative = inhibition) at 10uM” value read?
Its value is -2.16%.

For CCN(CC)Cc1c(O)ccc2c(=O)c(-c3ccccc3OC)coc12, which “hERG current change (%, negative = inhibition) at 10uM” value is on record?
The value was 15.7%.
